Several values for one entry are separate records, joined by “and”; a condition that tells them apart may be missing. Identical values can stand only once. Inconclusive means that the source gave no clear call. Such entries were picked first, then a sample of the others. Potencies of inconclusive entries are doubtful fits and often do not repeat. Some structures have more than one record in an assay (separate samples or runs), and their calls can disagree. Activity calls are given as the source filed them. Calls follow the shape of the dose curve; as a rule, active = well fitted cell-killing curve with a large enough effect in the repeat runs; inconclusive = weak or mixed curves, or effect the other way; inactive = flat fitted curve, though single readings scatter.
test: Human pregnane X receptor (PXR) small molecule agonists, qHTS cell viability counter screen (AID 1346977); conditions: PXR-Luc HepG2 viability, CellTiter-Fluor, 24 h; series mostly up to 92.4 µM; also: nearly all actives have a fitted effect of over 50% in size
Text: U.S. Tox21 Program National Center for Advancing Translational Sciences [NCATS] NIH Chemical Genomics Center [NCGC] U.S. Environmental Protection Agency [EPA] National Institutes of Environmental Health Sciences [NIEHS] National Toxicology Program [NTP] U.S. Food and Drug Administration [FDA] Tox21 Assay Overview: The human pregnane X receptor (hPXR) regulates the expression of several drug metabolizing enzymes and induction of these proteins is a major mechanism for developing drug resistance in cancer. One such key enzyme catalyzing the drug metabolism is cytochrome P450 3A4 (CYP3A4). Changes in CYP3A4 expression affect drug metabolism, thereby reducing the therapeutic efficacy and altering toxicological response to a drug and which finally causes adverse drug interaction. To screen Tox21 libraries for compounds that activate hPXR-mediated CYP3A4 gene expression, PXR-Luc HepG2 cells were used. Also cytotoxicity of the compounds was tested in parallel by measuring the cell viability using CellTiter-Fluor assay system in the same wells.
Tox21 Assay Protocol Summary: PXR-Luc HepG2 cells were dispensed at 2,000 per well in 5uL of assay medium containing 5% charcoal-stripped FBS into white solid bottom 1536-well plates (Corning Life Sciences, Corning, NY) using a Multidrop Combi (Thermo Scientific, Waltham, MA) dispenser. The assay plates were incubated at 37 C and 5% CO2 for 5hr, and then 23nL of compounds dissolved in DMSO and positive control were transferred using a Pintool station (Wako, San Diego, CA). The assay plates were incubated at 37C and 5% CO2 for 24hr. For cytotoxicity read, after 23hr incubation at 37C, 1uL CellTiter-Fluor reagent (Promega Corporation, Madison, WI) was added to each well of the assay plates using Flying Reagent Dispenser (FRD, Aurora Discovery, San Diego, CA). After 1hr incubation at 37C and 5% CO2, the fluorescence signal was quantified using a ViewLux plate reader (PerkinElmer, Shelton, CT).
% is scaled to controls: 0 for no effect and ±100 for the full control effect; potency is read from the fitted curve at half-maximal effect; tags tell the direction and shape of the fitted curve.

| SMILES | Potency | activity change, negative = cytotoxicity |
| --- | --- | --- |
| CN1CCN(C2=Nc3cc(F)ccc3Cc3ccccc32)CC1 | inconclusive: 33.5 µM [cytotoxic, single point] |  |
| CC(C)C(=O)Nc1ccc([N+](=O)[O-])c(C(F)(F)F)c1 | inconclusive: 68.6 µM [cytotoxic, single point] |  |
| Cc1nc(N)nc(N)c1-c1ccc(Cl)c(Cl)c1 | inconclusive: 29.8 µM [cytotoxic, partial curve] |  |
| O=[N+]([O-])C1(Br)COCOC1 | inconclusive: 77 µM [cytotoxic, partial curve, poor fit] |  |
| CC(=O)c1ccc(OCC(=O)N2CCCCC2)cc1 | inactive |  |
| Cc1ccc(S(=O)(=O)C(I)I)cc1 | active: 27.3 µM |  |
| Oc1cccc(O)c1O | inconclusive: 50.1 µM [cytotoxic, partial curve] |  |
| CN(CCCN1c2ccccc2CCc2ccccc21)CC(=O)c1ccc(Cl)cc1 | inconclusive: 33.5 µM [cytotoxic, partial curve, poor fit] |  |
| CC/C=C\C/C=C\C/C=C\CCCCCCCC(=O)OCC | inactive |  |
| O=S(=O)(c1ccc(OCc2ccccc2)cc1)c1ccccc1O | active: 61.1 µM |  |
| CNCc1ccccc1 | inactive |  |
| CC1C2CC(CC2C2CCCC(O)C2)C1(C)C (stereo not given) | inconclusive: 68.6 µM [cytotoxic, single point] |  |
| CC(C)NCC(O)c1ccc(O)c(O)c1 (stereo not given) | inconclusive: 44.7 µM [cytotoxic, partial curve, poor fit] and inconclusive: 43.3 µM [cytotoxic, partial curve] |  |
| Oc1cc(Cl)cc(Cl)c1Cl | inconclusive: 70.3 µM [cytotoxic, single point] |  |
| OC1CCC(C2CCCCC2)CC1 (stereo not given) | inactive |  |
| Cc1ccc(-n2nc(C(C)(C)C)cc2NC(=O)Nc2ccc(OCCN3CCOCC3)c3ccccc23)cc1 | inconclusive: 29.8 µM [cytotoxic, partial curve] |  |
| O=c1[nH]c(=O)c2[nH]c(=O)[nH]c2[nH]1 |  | inactive: -1.5% [at 8.39 µM] |
| COc1cc(NC(C)CCCN)c2ncccc2c1 (stereo not given) | active: 29.8 µM |  |
| Cc1ccc2c(c1)CCCN2 | inconclusive: 68.6 µM [cytotoxic, single point] |  |
| C[C@@H]1[C@H](O)[C@@H](C)/C=C/C=C\C=C\C=C\C=C\C=C\C=C\[C@H](O[C@@H]2O[C@H](C)[C@@H](O)[C@H](N)[C@@H]2O)C[C@@H]2O[C@](O)(C[C@@H](O)C[C@@H](O)[C@H](O)CC[C@@H](O)C[C@@H](O)CC(=O)O[C@H]1C)C[C@H](O)[C@H]2C(=O)O (stereo in doubt) | inconclusive: 61.1 µM [cytotoxic, partial curve] |  |

| SMILES | Potency | activity change, negative = cytotoxicity |
| --- | --- | --- |
| CC(C)[C@@H]1CC[C@@H](C)C[C@H]1O | inconclusive: 50.1 µM [cytotoxic, partial curve] |  |
| CC/C=C\C/C=C\C/C=C\CCCCCCCC(=O)OC | inconclusive: 68.6 µM [cytotoxic, single point] |  |
| C[C@@H]1O[C@@H](OC[C@H]2O[C@@H](Oc3c(-c4ccc(O)c(O)c4)oc4cc(O)cc(O)c4c3=O)[C@H](O)[C@@H](O)[C@@H]2O)[C@H](O)[C@H](O)[C@H]1O | inconclusive: 34.6 µM [cytotoxic, partial curve] |  |
| CC1(C)CCC(C)(C)c2cc(NC(=O)c3ccc(C(=O)O)cc3)ccc21 | inactive |  |
| COCC(=O)O | inconclusive: 70.8 µM [cytotoxic, partial curve, poor fit] and inactive |  |
| COc1cc(N)c(Cl)cc1C(=O)NC1CCN(Cc2ccccc2)CC1 | inconclusive: 29.8 µM [cytotoxic, partial curve, poor fit] |  |
| COc1ccc(C)cc1[N+](=O)[O-] | inactive |  |
| Cc1[nH]cnc1C[C@H]1CCc2c(C)c3ccccc3n2C1=O | inconclusive: 53.1 µM [cytotoxic, single point] |  |
| CC(C)NCC(O)COc1cccc2ccccc12 (stereo not given) | inconclusive: 34.4 µM [cytotoxic, partial curve] |  |
| Cc1cc2nc3ccc(=[N+](C)C)cc-3sc2cc1N | active: 13.3 µM |  |
| CN1CCCCC1CCN1c2ccccc2Sc2ccc(S(C)=O)cc21 (stereo not given) | inconclusive: 10.6 µM [cytotoxic, partial curve] |  |
| N=C(N)c1ccc(OCCCCCOc2ccc(C(=N)N)cc2)cc1 | inconclusive: 14.1 µM [cytotoxic, partial curve] and inconclusive: 10.4 µM [cytotoxic, partial curve] |  |
| CNCc1ccc(NC(=O)c2c[nH]c3c2C(=O)CCC3)cc1 | inconclusive: 61.1 µM [cytotoxic] |  |
| CC(=O)NNC(C)=O | inactive |  |
| CCCCOC(=O)c1ccc(O)cc1 | inconclusive: 79.4 µM [cytotoxic, single point] |  |
| CC(C)OC(=O)c1cc2c(OCC(O)CNC(C)(C)C)cccc2[nH]1 (stereo not given) | inconclusive: 26.6 µM [cytotoxic, partial curve] |  |
| O=C(OCC1CO1)C1CCCCC1C(=O)OCC1CO1 (stereo not given) | inconclusive: 68.7 µM [cytotoxic, single point] |  |
| CCOc1cccc(-n2cc(C(=O)N3CCN(c4cc(C(=O)O)c5ccccc5c4)CC3)nc2-c2ccc(C)cc2)c1 | inconclusive: 65.5 µM [cytotoxic, single point] |  |
| CN(C)CCCOC1(Cc2ccccc2)CCCCCC1 | inconclusive: 11.9 µM [cytotoxic, partial curve, poor fit] |  |
| NC(=O)N(O)[C@@H]1COc2cc(OCc3ccccc3)ccc21 | inconclusive: 61.1 µM [cytotoxic, single point] |  |

From PubChem BioAssay (Tox21)
